Consider 13 compounds from article PMC6386991 (International Journal of Molecular Sciences, 2019).

Read-outs that look alike come from different tables or passages of the source. Where only a bound is given, the exact number is not on record here.

For data set [1], the target named is T1, electric eel AChE (EeAChE) (Electrophorus electricus, UniProt O42275). Conditions: IC50(BuChE)/IC50(AChE).
Data set [2] concerns the target T2, equine serum BuChE (EqBuChE) (Equus caballus, UniProt P81908).
T2 construct: equine serum BuChE (EqBuChE); from tissue; host or cells: equine serum
In words: biochemical.

Data set [3] is described as follows: DPPH free-radical scavenging assay. Conditions: read-out: DPPH FRS50 ± SD.
The target of data set [4] is T1, electric eel AChE (EeAChE). Nature of the data set: biochemical.
The nature of data set [5]: ABTS radical scavenging assay. The conditions noted are these: for EC50: read-out: ABTS FRS50 ± SD.
For data set [6] the following is noted: Experimental Properties, calibration substances; cited from earlier work.
For data set [7] the following is noted: Experimental Properties, calibration substances; cited from earlier work. This is another data set of the same source.
In data set [8] the test system is SH-SY5Y cells. Nature of the data set: Neuroprotection against oxidative stress, H2O2, MTT. The conditions noted are these: Homo sapiens, read-out: % cell viability.
For data set [9], the system named is SH-SY5Y cells. In words: Neuroprotection against rotenone/oligomycin A, co-incubation, MTT. The conditions noted are these: R/O mixture, compound 0.001 µM.
Data set [10] concerns CCL-110 cell line (normal, human fibroblasts derived from skin). Nature of the data set: In vitro cytotoxicity assay (MTT) on CCL-110. The conditions noted are these: positive control, pure methanol.
The mark [11] stands for this setting: means ± SD of three independent experiments.

T2 sequence (P81908 whole entry): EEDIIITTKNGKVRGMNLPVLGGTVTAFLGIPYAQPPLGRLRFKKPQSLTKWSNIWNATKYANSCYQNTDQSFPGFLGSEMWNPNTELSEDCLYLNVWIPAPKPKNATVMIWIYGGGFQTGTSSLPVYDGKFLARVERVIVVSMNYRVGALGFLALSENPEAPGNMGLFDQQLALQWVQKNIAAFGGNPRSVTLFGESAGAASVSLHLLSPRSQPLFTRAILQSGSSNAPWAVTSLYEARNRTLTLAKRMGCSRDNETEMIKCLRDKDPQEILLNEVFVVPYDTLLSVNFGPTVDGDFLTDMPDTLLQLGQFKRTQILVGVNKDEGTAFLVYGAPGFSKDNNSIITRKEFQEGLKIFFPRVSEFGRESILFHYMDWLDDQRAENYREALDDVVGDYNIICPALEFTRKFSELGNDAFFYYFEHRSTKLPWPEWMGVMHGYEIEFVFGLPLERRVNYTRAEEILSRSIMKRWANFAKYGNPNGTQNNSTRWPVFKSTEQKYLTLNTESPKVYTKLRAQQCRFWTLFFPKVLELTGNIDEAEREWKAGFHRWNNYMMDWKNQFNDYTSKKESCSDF
T1 sequence (O42275 24-633): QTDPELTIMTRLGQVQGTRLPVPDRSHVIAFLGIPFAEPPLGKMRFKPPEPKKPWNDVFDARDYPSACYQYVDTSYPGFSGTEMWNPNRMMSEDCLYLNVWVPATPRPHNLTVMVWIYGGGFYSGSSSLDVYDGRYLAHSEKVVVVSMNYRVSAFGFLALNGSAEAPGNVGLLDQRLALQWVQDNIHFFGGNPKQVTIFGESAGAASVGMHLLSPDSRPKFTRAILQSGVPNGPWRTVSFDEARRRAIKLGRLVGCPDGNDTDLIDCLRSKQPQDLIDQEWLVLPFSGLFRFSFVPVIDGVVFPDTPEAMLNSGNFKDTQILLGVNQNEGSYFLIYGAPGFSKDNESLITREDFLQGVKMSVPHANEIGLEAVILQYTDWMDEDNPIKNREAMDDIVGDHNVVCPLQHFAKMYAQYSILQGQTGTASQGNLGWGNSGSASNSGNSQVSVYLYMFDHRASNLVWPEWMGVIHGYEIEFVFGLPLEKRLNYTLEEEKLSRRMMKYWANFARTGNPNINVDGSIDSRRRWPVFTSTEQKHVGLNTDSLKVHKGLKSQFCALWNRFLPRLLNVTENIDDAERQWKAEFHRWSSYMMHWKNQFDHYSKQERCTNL

Turning to `Cl.O=C(NCCNc1c2c(nc3ccccc13)CCC2)c1ccc(Cl)nc1` [Compound 3a, 6-chloro-N-[2-(2,3-dihydro-1H-cyclopenta[b]quinolin-9-ylamino)ethyl]pyridine-3-carboxamide hydrochloride], the “Selectivity for AChE” value in data set [1] is 0.3. Moreover, the “Selectivity for BuChE” value in [2] (IC50(AChE)/IC50(BuChE)) was found to be 3.6. In addition, the results for the IC50 in data set [2] (setting [11]) and in data set [4] were 0.124 ± 0.037 µM and 0.453 ± 0.018 µM, respectively. The results for the EC50 in data set [3] and in data set [5] were 14300 ± 1460 µM and 3100 ± 180 µM, respectively.
`Cl.O=C(NCCCNc1c2c(nc3ccccc13)CCC2)c1ccc(Cl)nc1` [Compound 3b, 6-chloro-N-[3-(2,3-dihydro-1H-cyclopenta[b]quinolin-9-ylamino)propyl]pyridine-3-carboxamide hydrochloride]: in [1], the “Selectivity for AChE” value is 2.5. In addition, in data set [2] (IC50(AChE)/IC50(BuChE)), the “Selectivity for BuChE” value is 0.4. Moreover, the IC50 in data set [2] (setting [11]) was determined as 0.618 ± 0.043 µM; in data set [4], 0.245 ± 0.038 µM. For the same compound, the EC50 in data set [3] was > 20000 µM; in data set [5], 1900 ± 300 µM. The “times less active than the reference compound (ABTS)” value in data set [5] (versus trolox) is 48 times.
Take `O=C(NCCCCNc1c2c(nc3ccccc13)CCC2)c1ccc(Cl)nc1` [Compound 3c]: the “Selectivity for AChE” value in [1] is on record as 1.1. In [2], the “Selectivity for BuChE” value is listed as 0.9. Moreover, the values for the IC50 in data set [2] (read-out: BuChE IC50 ± SD) and in data set [4] were 0.662 ± 0.053 µM and 0.589 ± 0.072 µM, respectively. Also, the EC50 in data set [3] was > 20000 µM; in data set [5] it was 3600 ± 660 µM.
For the compound `O=C(NCCCCCNc1c2c(nc3ccccc13)CCC2)c1ccc(Cl)nc1` [Compound 3d], in data set [1], the “Selectivity for AChE” value came to 3.3. Moreover, the “Selectivity for BuChE” value in [2] turned out to be 0.3. Besides, the IC50 worked out at 0.534 ± 0.023 µM in data set [2] (read-out: BuChE IC50 ± SD) and 0.162 ± 0.018 µM in [4]. In addition, the figures for the EC50 in data set [3] and in data set [5] were > 20000 µM and 4800 ± 660 µM, respectively.
In the case of `O=C(NCCCCCCCNc1c2c(nc3ccccc13)CCC2)c1ccc(Cl)nc1` [Compound 3f], in data set [1], the “Selectivity for AChE” value came to 0.8. In addition, in data set [2], the “Selectivity for BuChE” value is 1.2. Further, the values for the IC50 in data set [2] (read-out: BuChE IC50 ± SD) and in [4] were 0.062 ± 0.003 µM and 0.074 ± 0.004 µM, respectively. Moreover, the figures for the EC50 in [3] and in data set [5] were > 20000 µM and 10500 ± 1790 µM, respectively.
Consider `O=C(NCCCCCCCCNc1c2c(nc3ccccc13)CCC2)c1ccc(Cl)nc1` [Compound 3g], for which, in data set [1], the “Selectivity for AChE” value turned out to be 0.6. Also, the IC50 was found to be 0.042 ± 0.006 µM in data set [2] (read-out: BuChE IC50 ± SD) and 0.073 ± 0.005 µM in data set [4]. Moreover, the EC50 is > 20000 µM in data set [3] and 4800 ± 340 µM in data set [5].
Regarding `O=C(NCCCCCCCCCNc1c2c(nc3ccccc13)CCC2)c1ccc(Cl)nc1` [Compound 3h], the “Selectivity for AChE” value in data set [1] was 1.3. The “Selectivity for BuChE” value in [2] is 0.8. Further, the figures for the IC50 in data set [2] (read-out: BuChE IC50 ± SD) and in data set [4] were 0.094 ± 0.006 µM and 0.071 ± 0.005 µM, respectively. Also, the EC50 in data set [3] and in data set [5] was > 20000 µM in each case.
Turning to `CC(CN1c2ccccc2Sc2ccccc21)N(C)C.Cl` (stereo not drawn) [Prometazine HCl], the pKa in data set [6] is 9.1 [17].
As to `NC(=O)c1ccccc1O` [Salicynamide], the logP in data set [7] is reported as 1.28. For the same compound, in data set [6], the pKa was 8.37 [18].
`Nc1c2c(nc3ccccc13)CCCC2` [THA, Tacrine, reference compound] came in with a viability at 24 h, 10 µM in “in vitro” of 90%. In addition, the EC50 in data set [3] and in data set [5] was > 20000 µM throughout.
Take `CSc1ccc2c(c1)N(CCC1CCCCN1C)c1ccccc1S2.Cl` (stereo not drawn) [Thiorydazine HCl]: the logP in data set [7] is given as 5.9. In addition, the pKa in data set [6] was 9.5 [20].
As to `Cc1c(C)c2c(c(C)c1O)CCC(C)(C(=O)O)O2` (stereo not drawn) [Trolox], in the data set on SH-SY5Y cells [8], the viability at 0.01 µM is 96.4%, the viability at 0.1 µM amounted to 98.6% and the viability at 10 µM stood at 99.2%. Also, the EC50 in data set [3] was 4.9 ± 0.4 µM. The neuroprotection in the data set with SH-SY5Y cells [9] is listed as 5.60%. Also, in data set [5], the EC50 amounted to 40 ± 6 µM.
`CO` [methanol, reference compound] registered a cells viability in data set [10] of 22%.
